Measurements reported in PMC4336329 (PLoS ONE, 2015).
Among all 310,000 compounds or so, about 2,200 (0.71%) showed an effect of 50% or more. Effects have a minus sign here. Some of the results follow.

The compounds below were run against human ether-à-go-go-related gene (hERG) potassium channel (human, UniProt Q12809) (assay: primary screen, population patch clamp on CHO cells stably expressing hERG).
Chain of human ether-à-go-go-related gene (hERG) potassium channel (Q12809 whole entry, looked up): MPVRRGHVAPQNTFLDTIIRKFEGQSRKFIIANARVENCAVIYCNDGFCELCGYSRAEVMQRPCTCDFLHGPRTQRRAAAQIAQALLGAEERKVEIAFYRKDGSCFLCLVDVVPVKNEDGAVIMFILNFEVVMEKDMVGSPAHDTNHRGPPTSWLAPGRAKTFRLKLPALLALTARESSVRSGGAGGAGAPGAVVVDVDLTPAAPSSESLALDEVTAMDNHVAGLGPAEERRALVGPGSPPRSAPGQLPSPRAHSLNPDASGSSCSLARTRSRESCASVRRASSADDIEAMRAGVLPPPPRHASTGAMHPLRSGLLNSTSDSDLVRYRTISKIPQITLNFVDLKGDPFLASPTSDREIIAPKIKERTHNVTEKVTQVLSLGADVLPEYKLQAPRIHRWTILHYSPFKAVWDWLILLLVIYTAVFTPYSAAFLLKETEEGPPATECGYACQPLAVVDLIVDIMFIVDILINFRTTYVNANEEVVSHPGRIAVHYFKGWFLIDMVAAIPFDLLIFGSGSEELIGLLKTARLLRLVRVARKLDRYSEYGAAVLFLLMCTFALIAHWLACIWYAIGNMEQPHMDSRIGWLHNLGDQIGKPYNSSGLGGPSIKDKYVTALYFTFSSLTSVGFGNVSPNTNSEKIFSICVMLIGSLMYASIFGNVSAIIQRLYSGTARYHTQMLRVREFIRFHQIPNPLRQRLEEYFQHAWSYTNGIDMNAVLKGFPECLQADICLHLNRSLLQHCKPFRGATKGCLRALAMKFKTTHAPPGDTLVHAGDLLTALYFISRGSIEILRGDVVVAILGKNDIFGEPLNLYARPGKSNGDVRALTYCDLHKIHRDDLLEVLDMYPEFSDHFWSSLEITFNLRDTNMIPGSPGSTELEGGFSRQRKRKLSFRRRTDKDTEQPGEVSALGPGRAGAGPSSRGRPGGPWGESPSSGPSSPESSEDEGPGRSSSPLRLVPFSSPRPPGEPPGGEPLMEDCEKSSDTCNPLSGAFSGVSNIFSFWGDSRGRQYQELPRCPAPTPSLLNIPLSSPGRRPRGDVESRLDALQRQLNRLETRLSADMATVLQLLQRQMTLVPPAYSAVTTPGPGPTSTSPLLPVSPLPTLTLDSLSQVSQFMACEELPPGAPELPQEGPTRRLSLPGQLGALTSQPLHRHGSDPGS

Row | Compound | hERG current change (%, negative = inhibition) at 1uM
1 | CC(=O)c1cccc(Oc2cc(NN3CCCCC3)c([N+](=O)[O-])cc2[N+](=O)[O-])c1 | 12.8%
2 | COc1ccc(S(=O)(=O)Nc2ccccc2OC)cc1NC(=O)Cc1cccs1 | 9.07%
3 | C/C(=N\NC(=O)CN(c1ccccc1)S(=O)(=O)c1ccccc1[N+](=O)[O-])C(C)(C)C | 0.526%
4 | CCOC(=O)c1nc(-c2ccc(OC)c(OC)c2)no1 | 3.69%
5 | CCOC(=O)COc1ccc(/C=C2\NC(=S)N(CC)C2=O)cc1 | 8.45%
6 | O=C(COc1ccc([N+](=O)[O-])cc1)Nc1cc(S(=O)(=O)N2CCCCC2)ccc1N1CCCCC1 | 12.4%
7 | O=C(Cc1ccccc1F)OCC(=O)N1CCN(C(=O)c2ccco2)CC1 | -1.25%
8 | Cc1cccc(Cn2c(N3CCc4ccccc4C3)nc3c2c(=O)[nH]c(=O)n3C)c1 | 1.68%
9 | CC(C)(C)c1cc(OS(C)(=O)=O)ccc1O | 13.3%
10 | CCN(C(=O)CN1CCN(c2ccc(OC)cc2)CC1)c1c(N)n(Cc2ccccc2)c(=O)[nH]c1=O | 2.57%
11 | CCOC(=O)c1cnc(-n2nc(C)cc2C)nc1NNc1cc(C)nc(-c2ccccc2)n1 | 5.3%
12 | Cc1ccc(/C=N/Nc2ccc3ccccc3n2)o1 | -7.77%
13 | CC(=O)n1cc([C@@H]2C=C(C(=O)O)O[C@H](OCc3ccc(CO)cc3)C2)c2ccccc21 | 4.15%
14 | Cc1ccc2nc(SCC(=O)N3CC(C)OC(C)C3)nc(=O)n2c1 (stereo not drawn) | 4.64%
15 | CN1C(=O)/C(=C/c2ccco2)SC1=Nc1cccc(C(=O)O)c1 | 18%
16 | COc1cccc(NS(=O)(=O)c2ccc(OC)c(OC)c2)c1 | -0.905%
17 | CC1=CC(C)(C)n2c(O)c(N=NC(N)=S)c3c(C)ccc1c32 | 10.6%
18 | O=C(OCc1nc2ccccc2s1)c1cccc(N2C(=O)CCC2=O)c1 | 17.5%
19 | COc1cccc(C(C)NC(=O)Cc2cccs2)c1 (stereo not drawn) | 16%
20 | CCOC(=O)C[n+]1c(C)csc1C.[Br-] | 9.26%
21 | Cc1cc(C(F)F)n2ncc(C(=O)NCc3ccccc3C(F)(F)F)c2n1 | 7.73%
22 | CC(C)N1C(=O)S/C(=C\c2ccc(-c3ccc(Cl)c(C(=O)O)c3)o2)C1=O | 16.4%

Row | Compound | hERG current change (%, negative = inhibition) at 1uM
23 | CCn1c2ccc(F)cc2c2nnc(SCCN3CCCCC3)nc21 | -29.4%
24 | O=C(/C=C/c1ccco1)NCCc1ccccc1 | 8.46%
25 | CN1CCN(CC(=O)N2c3ccccc3C(C)(c3ccc(Cl)cc3)CC2(C)C)CC1 (stereo not drawn) | 4.77%
26 | COc1ccc(N2CCN(C(=O)CSc3nc4nc(C)cc(C)n4n3)CC2)cc1 | -1.83%
27 | FC(F)(F)c1ccc(C2[C@H]3CN(Cc4ccc(-c5ccccc5)cc4)[C@H](c4ccccc4)C34CC2(c2ccccc2)C4)cc1 (stereo partly drawn) | 13.8%
28 | CC(C)OC(=O)CC1C(=O)NCCN1C(=S)NC(=O)CCc1ccccc1 (stereo not drawn) | -9.42%
29 | COc1ccc(CC(=O)NC2CCN(CC(=O)Nc3ccc4c(c3)OCCO4)CC2)cc1OC | 1.54%
30 | Cc1nn(-c2ccccc2)c(Cl)c1/C=N/NS(=O)(=O)c1ccc(Br)cc1 | 2.41%
31 | Cc1nnc2n1N=CC=C(c1ccccc1)S2 | -13.8%
32 | O=C(CCSc1nc(-c2ccco2)cc(C(F)(F)F)n1)N1CCN(c2ccccc2)CC1 | 8.05%
33 | O=C(C1CCC(=O)N1C1CCCC1)N1CCC2(CC1)OCCO2 (stereo not drawn) | 4.31%
34 | C=CCn1c(SCC(=O)c2c(N)n(C3CC3)c(=O)[nH]c2=O)nnc1-c1ccoc1C | 11%
35 | COc1ccc(-c2noc(CCC(=O)NCCc3cccc(C)c3)n2)cc1 | 10.2%
36 | O=C(c1ccccc1)N1CC[NH+](CC(O)COC2CCCCC2)CC1.[Cl-] (stereo not drawn) | 4.46%
37 | C=CCn1c(SCC(=O)/C(C#N)=C(\C)N)nc2sc(C)c(C)c2c1=O | -2.05%
38 | Clc1ccc(/C=N/Nc2nnc(-c3ncc[nH]3)c3ccccc23)cc1 | 4.89%
39 | CCCCn1c(N)c(N(CC(C)C)C(=O)CC2CCCC2)c(=O)[nH]c1=O | 6.57%
40 | O=C(CN1CCN(C(=O)CNC(=O)c2ccc3c(c2)OCO3)CC1)Nc1ccc(F)cc1 | -4.24%
41 | COC(=O)c1ccccc1-n1c(C)nc2ccccc2c1=O | 8.62%
42 | CCCCN(CC)C(=O)Cc1cn(C)c2ccccc12 | 9.64%
43 | CCN(C(=O)COC(=O)Cc1c[nH]c2ccccc12)c1c(N)n(Cc2ccccc2)c(=O)[nH]c1=O | 4.14%
44 | CCOc1ccc(/C=C/C(=O)Nc2cccc(C(C)=O)c2)cc1 | 11.8%

Row | Compound | hERG current change (%, negative = inhibition) at 1uM
45 | CC(C)CC(=O)Nc1ccnc(-c2ccncc2)n1 | -7.96%
46 | O=C(C1=C(O)C(=O)N(CCCn2ccnc2)C1c1ccccc1)c1ccco1 (stereo not drawn) | 6.79%
47 | COc1ccccc1N1CCN(C(=O)CN2C(=O)c3ccccc3S2(=O)=O)CC1 | 10.9%
48 | O=S1(=O)N=C(Oc2cccc3ccccc23)c2ccccc21 | 11.4%
49 | O=C(CCCOc1ccc(Cl)cc1Cl)N1CCc2ccccc2C1 | 13.3%
50 | CC(C)(C)NC(=O)COc1ccc(CNCc2cccs2)cc1.Cl | 11.1%
51 | Cn1c(=O)c2c(nc(SCCN3CCCCC3)n2Cc2ccccc2)n(C)c1=O | -66%
52 | CC(C)(C)C1CCC(=NOC(=O)c2ccc(F)cc2)CC1 (stereo not drawn) | 13.7%
53 | O=C(CNc1c(Br)cc(Br)cc1Br)NN=C1CCCCC1 | -0.726%
54 | COc1ccc(N=C2SCC(c3ccccc3)=NN2C)cc1 | 7.83%
55 | Cc1cc(C)n2c(SCC(=O)Nc3ccc(F)cc3F)nnc2n1 | 30.5%
56 | CNc1c(NS(=O)(=O)c2ccc(C(C)(C)C)cc2)c(=O)oc2ccccc12 | 6.66%
57 | C/C(=N\NC(=O)CCC(=O)Nc1ccc(C)c(C)c1)C1CC1 | 10.2%
58 | Cc1ccc(CNc2nc(N)c([N+](=O)[O-])c(Nc3cccc(F)c3)n2)cc1 | 1.73%
59 | Cc1cc(=O)[nH]c(SCC(=O)c2ccc(O)c(O)c2)n1 | 17.6%
60 | CC1(C)CC(CC(=O)Nc2ccc([N+](=O)[O-])cc2)C(=O)O1 (stereo not drawn) | -5.96%
61 | O=C(CN(C(=O)CSc1nnc(COc2ccccc2)o1)c1ccc(F)cc1)NC1CCCCC1 | -13.5%
62 | O=C(CSc1nc2ccccc2[nH]1)N/N=C/c1ccncc1 | 12.3%
63 | CC1(C)Cn2c(nnc2-c2ccccc2)S1 | 18%
64 | CC(C)=CC(=O)OCC(=O)NC1CCCc2ccccc21 (stereo not drawn) | 11.4%
65 | CCOC(=O)C1(Cc2ccccc2)CCN(Cc2ccc(C)s2)CC1 | -2.06%
66 | O=C(c1ccc(CS(=O)(=O)c2ccccc2)o1)N1CCN(c2ncccn2)CC1 | 1.46%

Row | Compound | hERG current change (%, negative = inhibition) at 1uM
67 | COC(C(=O)Nc1ccc(F)c(F)c1)c1ccccc1 (stereo not drawn) | 9.43%
68 | Cc1ccc(N2CCN(S(=O)(=O)c3cccs3)CC2C)cc1 (stereo not drawn) | 15.8%
69 | O=C(CSc1nnc(NC(=O)c2c(F)cccc2F)s1)Nc1ccc(F)cc1 | 7.29%
70 | CCCn1cc(S(=O)(=O)c2ccccc2)c(=O)c2cc(CC)ccc21 | 9.4%
71 | COc1ccccc1-c1noc(-c2ccccc2C(=O)NCC2CCCO2)n1 (stereo not drawn) | 14.1%
72 | N#Cc1c(NC(=S)NC(=O)c2ccccc2)sc2c1CCN(CCc1ccccc1)C2 | 2.87%
73 | CON(c1nc(Cl)nc(N(C)C)n1)S(=O)(=O)c1ccccc1Cl | 6.38%
74 | CN(CC(=O)Nc1ccccc1Cl)C(=O)c1cccc(S(=O)(=O)N2CCN(c3ccc(F)cc3)CC2)c1 | 6.29%
75 | O=C(N/N=C/c1ccccc1O)C1SCCCS1 | -1.63%
76 | Cc1ccc(C(=O)NC(=S)Nc2c(C)ccc3nsnc23)cc1 | 0.803%
77 | Cc1c(Cl)cccc1-n1c(SCC(=O)N2CCC(C(=O)O)CC2)nnc1-c1ccncc1 | 26.3%
78 | c1ccc2cc(CSCc3nc4ccccc4[nH]3)ccc2c1 | 8.19%
79 | COc1cc(S(=O)(=O)N2CCOCC2)ccc1N | 13.2%
80 | CCc1noc(C)c1C(=O)Nc1nc2ccc(S(C)(=O)=O)cc2s1 | 11.6%
81 | O=C(/C=C/c1ccccc1)N(Cc1cccc(Cl)c1)C1CCS(=O)(=O)C1 (stereo not drawn) | 10.2%
82 | Cc1ccc(NC(=O)CN2CCN(S(=O)(=O)c3cccs3)CC2)cc1S(=O)(=O)N(C)C | -2.13%
83 | O=C(CCC(=O)OCC(=O)c1cccc([N+](=O)[O-])c1)Nc1cccc(Cl)c1Cl | 11.8%
84 | COCCN1Cc2cc3cc(C)ccc3nc2SC1=Nc1cccc(OC)c1 | 16.1%
85 | O=C(C1CCCN(S(=O)(=O)c2ccccc2)C1)N1CCCCCC1 (stereo not drawn) | 1.26%
86 | O=C(NNS(=O)(=O)c1ccc(Cl)cc1)c1cccs1 | 14.9%
87 | COc1ccc(S(=O)(=O)N2CCN(c3nc(C)cc(C)n3)CC2)cc1 | 7.75%
